Data taken from article PMC9911399, “Two distinct binding modes provide the RNA-binding protein RbFox with extraordinary sequence specificity”.
Substitutions are numbered along the chain they refer to; changes in the protein carry UniProt numbers. This is one part of the list.

T1: RBFOX1 RRM (Homo sapiens, UniProt Q9NWB1 109-208)
T1 sequence: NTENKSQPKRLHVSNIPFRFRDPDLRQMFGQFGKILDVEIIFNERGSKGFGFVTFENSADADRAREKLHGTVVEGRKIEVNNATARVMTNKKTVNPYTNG

B1: GAGCACG (DNA:RNA)
RNA: GGGAGACCGGAAUUCAGAUUGUCCGAGCACGUUAAAUCCCGUCGUAGCCACCA
DNA 1: CAATCTGAATTCCGGTCTCCC
DNA 2: TGGTGGCTACGACGGGATT
B2: GCUUGGA (DNA:RNA)
RNA: B1 RNA with A26C, G27U, C28U, A29G, C30G, G31A
DNA 1: CAATCTGAATTCCGGTCTCCC
DNA 2: TGGTGGCTACGACGGGATT
B3: UGGACCU (DNA:RNA)
RNA: B1 RNA with G25U, A26G, C28A, A29C, G31U
DNA 1: CAATCTGAATTCCGGTCTCCC
DNA 2: TGGTGGCTACGACGGGATT
B4: UCUCAGC (DNA:RNA)
RNA: B1 RNA with G25U, A26C, G27U, C30G, G31C
DNA 1: CAATCTGAATTCCGGTCTCCC
DNA 2: TGGTGGCTACGACGGGATT
B5: ACAGGGC (DNA:RNA)
RNA: GGGAGACCGGAAUUCAGAUUGUCCACAGGGCUUAAAUCCCGUCGUAGCCACCA
DNA 1: CAATCTGAATTCCGGTCTCCC
DNA 2: TGGTGGCTACGACGGGATT
B6: CGGAGUG (DNA:RNA)
RNA: B1 RNA with G25C, A26G, C28A, A29G, C30U
DNA 1: CAATCTGAATTCCGGTCTCCC
DNA 2: TGGTGGCTACGACGGGATT
B7: GCACGGU (DNA:RNA)
RNA: B5 RNA with A25G, G28C, C31U
DNA 1: CAATCTGAATTCCGGTCTCCC
DNA 2: TGGTGGCTACGACGGGATT
B8: GACAGCC (DNA:RNA)
RNA: B1 RNA with G27C, C28A, A29G, G31C
DNA 1: CAATCTGAATTCCGGTCTCCC
DNA 2: TGGTGGCTACGACGGGATT
B9: GGAUCAC (DNA:RNA)
RNA: B5 RNA with A25G, C26G, G28U, G29C, G30A
DNA 1: CAATCTGAATTCCGGTCTCCC
DNA 2: TGGTGGCTACGACGGGATT
B10: AUGGUAC (DNA:RNA)
RNA: B5 RNA with C26U, A27G, G29U, G30A
DNA 1: CAATCTGAATTCCGGTCTCCC
DNA 2: TGGTGGCTACGACGGGATT
B11: GAUCGUG (DNA:RNA)
RNA: B1 RNA with G27U, A29G, C30U
DNA 1: CAATCTGAATTCCGGTCTCCC
DNA 2: TGGTGGCTACGACGGGATT
B12: UUUUAUC (DNA:RNA)
RNA: B5 RNA with A25U, C26U, A27U, G28U, G29A, G30U
DNA 1: CAATCTGAATTCCGGTCTCCC
DNA 2: TGGTGGCTACGACGGGATT
B13: UAAAGGA (DNA:RNA)
RNA: B5 RNA with A25U, C26A, G28A, C31A
DNA 1: CAATCTGAATTCCGGTCTCCC
DNA 2: TGGTGGCTACGACGGGATT
B14: UGUUGCG (DNA:RNA)
RNA: B1 RNA with G25U, A26G, G27U, C28U, A29G
DNA 1: CAATCTGAATTCCGGTCTCCC
DNA 2: TGGTGGCTACGACGGGATT
B15: UCAACAC (DNA:RNA)
RNA: B5 RNA with A25U, G28A, G29C, G30A
DNA 1: CAATCTGAATTCCGGTCTCCC
DNA 2: TGGTGGCTACGACGGGATT
B16: GCGCUUU (DNA:RNA)
RNA: B1 RNA with A26C, A29U, C30U, G31U
DNA 1: CAATCTGAATTCCGGTCTCCC
DNA 2: TGGTGGCTACGACGGGATT
B17: AUUAUGA (DNA:RNA)
RNA: B5 RNA with C26U, A27U, G28A, G29U, C31A
DNA 1: CAATCTGAATTCCGGTCTCCC
DNA 2: TGGTGGCTACGACGGGATT
B18: GGUGUGC (DNA:RNA)
RNA: B5 RNA with A25G, C26G, A27U, G29U
DNA 1: CAATCTGAATTCCGGTCTCCC
DNA 2: TGGTGGCTACGACGGGATT
B19: AUGUUUG (DNA:RNA)
RNA: B1 RNA with G25A, A26U, C28U, A29U, C30U
DNA 1: CAATCTGAATTCCGGTCTCCC
DNA 2: TGGTGGCTACGACGGGATT
B20: GGCUGAC (DNA:RNA)
RNA: B5 RNA with A25G, C26G, A27C, G28U, G30A
DNA 1: CAATCTGAATTCCGGTCTCCC
DNA 2: TGGTGGCTACGACGGGATT
B21: UGCAGAU (DNA:RNA)
RNA: B5 RNA with A25U, C26G, A27C, G28A, G30A, C31U
DNA 1: CAATCTGAATTCCGGTCTCCC
DNA 2: TGGTGGCTACGACGGGATT
B22: AAACCGA (DNA:RNA)
RNA: B5 RNA with C26A, G28C, G29C, C31A
DNA 1: CAATCTGAATTCCGGTCTCCC
DNA 2: TGGTGGCTACGACGGGATT
B23: AGCUUAA (DNA:RNA)
RNA: B5 RNA with C26G, A27C, G28U, G29U, G30A, C31A
DNA 1: CAATCTGAATTCCGGTCTCCC
DNA 2: TGGTGGCTACGACGGGATT
B24: GUUAAGU (DNA:RNA)
RNA: B1 RNA with A26U, G27U, C28A, C30G, G31U
DNA 1: CAATCTGAATTCCGGTCTCCC
DNA 2: TGGTGGCTACGACGGGATT
B25: CUGUGAC (DNA:RNA)
RNA: B5 RNA with A25C, C26U, A27G, G28U, G30A
DNA 1: CAATCTGAATTCCGGTCTCCC
DNA 2: TGGTGGCTACGACGGGATT
B26: GUUCAUA (DNA:RNA)
RNA: B1 RNA with A26U, G27U, C30U, G31A
DNA 1: CAATCTGAATTCCGGTCTCCC
DNA 2: TGGTGGCTACGACGGGATT
B27: UAUGUCG (DNA:RNA)
RNA: B1 RNA with G25U, G27U, C28G, A29U
DNA 1: CAATCTGAATTCCGGTCTCCC
DNA 2: TGGTGGCTACGACGGGATT
B28: GGCUUAG (DNA:RNA)
RNA: B1 RNA with A26G, G27C, C28U, A29U, C30A
DNA 1: CAATCTGAATTCCGGTCTCCC
DNA 2: TGGTGGCTACGACGGGATT
B29: UCAAAAU (DNA:RNA)
RNA: B5 RNA with A25U, G28A, G29A, G30A, C31U
DNA 1: CAATCTGAATTCCGGTCTCCC
DNA 2: TGGTGGCTACGACGGGATT
B30: GAAAGUA (DNA:RNA)
RNA: B5 RNA with A25G, C26A, G28A, G30U, C31A
DNA 1: CAATCTGAATTCCGGTCTCCC
DNA 2: TGGTGGCTACGACGGGATT
B31: AUCCGGG (DNA:RNA)
RNA: B5 RNA with C26U, A27C, G28C, C31G
DNA 1: CAATCTGAATTCCGGTCTCCC
DNA 2: TGGTGGCTACGACGGGATT

target: T1, RBFOX1 RRM; experiment: EMSA; HiTS-Eq, 1 nM pool, 10 min; buffer printed only for the single-RNA assays: 10 mM Tris pH 7.5, 150 mM NaCl, 3.4 mM EDTA, 0.001% NP-40, 30 C; details: tags: His6 N-terminal (pET28a); label: 5' 32P
Procedure, shortened: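 These values rest on relative association constants, computed from read-count changes of each RNA species versus the control reaction and normalised to the cognate motif. Reads came from free RNA recovered by 8% native PAGE after purified RbFox RRM (wild type or mutant) at increasing concentrations was equilibrated for 10 min in 50 µL with 1 nM of a 5′-radiolabelled pool with 7 randomized nucleotides and DNA-annealed flanks.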

Q: How did the binding signal turn out when B1 was run?
A: The binding signal was 0.0394 KA relative to UGCAUGU.

Q: B2 was tested. Which binding signal did it give?
A: The binding signal was 0.0122 KA relative to UGCAUGU.

Q: How did the binding signal turn out when B3 was run?
A: The binding signal was 0.0178 KA relative to UGCAUGU.

Q: How did the binding signal turn out when B4 was run?
A: Its binding signal is 0.0078 KA relative to UGCAUGU.

Q: For B5, which binding signal is on record?
A: The binding signal was 0.0117 KA relative to UGCAUGU.

Q: How did the binding signal turn out when B6 was run?
A: Its binding signal is 0.0283 KA relative to UGCAUGU.

Q: With B7 as the binder, how does the binding signal read?
A: The binding signal was 0.0324 KA relative to UGCAUGU.

Q: With B8 as the binder, how does the binding signal read?
A: The binding signal was 0.0108 KA relative to UGCAUGU.

Q: How did the binding signal turn out when B9 was run?
A: Its binding signal is 0.013 KA relative to UGCAUGU.

Q: Which binding signal does the source give for B10 here?
A: Its binding signal is 0.0115 KA relative to UGCAUGU.

Q: With B11 as the binder, how does the binding signal read?
A: The binding signal was 0.0183 KA relative to UGCAUGU.

Q: For B12, which binding signal is on record?
A: Its binding signal is 0.00798 KA relative to UGCAUGU.

Q: Which binding signal does the source give for B13 here?
A: The binding signal was 0.00067 KA relative to UGCAUGU.

Q: B14 was tested. Which binding signal did it give?
A: Its binding signal is 0.0326 KA relative to UGCAUGU.

Q: Which binding signal does the source give for B15 here?
A: Its binding signal is 0.00159 KA relative to UGCAUGU.

Q: How did the binding signal turn out when B16 was run?
A: The binding signal was 0.0174 KA relative to UGCAUGU.

Q: Which binding signal does the source give for B17 here?
A: The binding signal was 0.00658 KA relative to UGCAUGU.

Q: How did the binding signal turn out when B18 was run?
A: The binding signal was 0.0168 KA relative to UGCAUGU.

Q: How did the binding signal turn out when B19 was run?
A: Its binding signal is 0.0211 KA relative to UGCAUGU.

Q: How did the binding signal turn out when B20 was run?
A: The binding signal was 0.026 KA relative to UGCAUGU.

Q: For B21, which binding signal is on record?
A: The binding signal was 0.0169 KA relative to UGCAUGU.

Q: For B22, which binding signal is on record?
A: Its binding signal is 0.00102 KA relative to UGCAUGU.

Q: For B23, which binding signal is on record?
A: The binding signal was 0.00163 KA relative to UGCAUGU.

Q: With B24 as the binder, how does the binding signal read?
A: The binding signal was 0.0112 KA relative to UGCAUGU.

Q: With B25 as the binder, how does the binding signal read?
A: The binding signal was 0.00781 KA relative to UGCAUGU.

Q: B26 was tested. Which binding signal did it give?
A: The binding signal was 0.00309 KA relative to UGCAUGU.

Q: How did the binding signal turn out when B27 was run?
A: The binding signal was 0.0233 KA relative to UGCAUGU.

Q: With B28 as the binder, how does the binding signal read?
A: The binding signal was 0.00602 KA relative to UGCAUGU.

Q: For B29, which binding signal is on record?
A: The binding signal was 0.00169 KA relative to UGCAUGU.

Q: For B30, which binding signal is on record?
A: The binding signal was 0.00589 KA relative to UGCAUGU.

Q: B31 was tested. Which binding signal did it give?
A: Its binding signal is 0.00181 KA relative to UGCAUGU.
